In PMC7588443 (Nature Communications, 2020):
No constants are given. Whether binding was seen depends on the method and setting. In cells and extracts the contact can be indirect. Some binding calls cover weakened binding; strength is not graded here. Where a sequence is shown, tags or fusion partners need not be part of it.

Columns and labels:
Assay in all cases: co-IP; transfected HEK293T cells; lysis buffer 25 mM Tris-HCl pH 7.4, 150 mM NaCl, 1 mM EDTA, 1% NP40, 5% glycerol; anti-Flag, anti-Myc or anti-HA beads overnight at 4 °C; Western blot
[1] = target: T1, Flag-tagged BSRF1 (Epstein-Barr virus (human herpesvirus 4 strain M81)) (UniProt P0CK49)
T1 sequence: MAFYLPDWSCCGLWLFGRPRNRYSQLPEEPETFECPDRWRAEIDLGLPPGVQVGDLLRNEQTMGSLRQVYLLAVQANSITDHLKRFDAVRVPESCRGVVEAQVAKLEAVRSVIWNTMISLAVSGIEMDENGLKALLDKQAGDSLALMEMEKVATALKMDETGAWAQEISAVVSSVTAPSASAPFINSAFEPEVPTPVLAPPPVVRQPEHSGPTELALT

[2] = target: T2, Flag-tagged BSRF1_(20-218) (Epstein-Barr virus (human herpesvirus 4 strain M81)) (UniProt P0CK49)
T2 sequence: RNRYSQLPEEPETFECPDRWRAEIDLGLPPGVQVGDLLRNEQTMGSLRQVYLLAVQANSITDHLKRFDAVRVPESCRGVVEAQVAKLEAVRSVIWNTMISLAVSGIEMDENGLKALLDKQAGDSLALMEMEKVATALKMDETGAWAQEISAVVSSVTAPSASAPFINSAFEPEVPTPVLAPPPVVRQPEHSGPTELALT

[3] = target: HA-tagged EBV glycoprotein gB (Epstein-Barr virus) (UniProt P03188)
GOLGA5 = target: T3, GOLGA5 (UniProt Q8TBA6)
T3 sequence: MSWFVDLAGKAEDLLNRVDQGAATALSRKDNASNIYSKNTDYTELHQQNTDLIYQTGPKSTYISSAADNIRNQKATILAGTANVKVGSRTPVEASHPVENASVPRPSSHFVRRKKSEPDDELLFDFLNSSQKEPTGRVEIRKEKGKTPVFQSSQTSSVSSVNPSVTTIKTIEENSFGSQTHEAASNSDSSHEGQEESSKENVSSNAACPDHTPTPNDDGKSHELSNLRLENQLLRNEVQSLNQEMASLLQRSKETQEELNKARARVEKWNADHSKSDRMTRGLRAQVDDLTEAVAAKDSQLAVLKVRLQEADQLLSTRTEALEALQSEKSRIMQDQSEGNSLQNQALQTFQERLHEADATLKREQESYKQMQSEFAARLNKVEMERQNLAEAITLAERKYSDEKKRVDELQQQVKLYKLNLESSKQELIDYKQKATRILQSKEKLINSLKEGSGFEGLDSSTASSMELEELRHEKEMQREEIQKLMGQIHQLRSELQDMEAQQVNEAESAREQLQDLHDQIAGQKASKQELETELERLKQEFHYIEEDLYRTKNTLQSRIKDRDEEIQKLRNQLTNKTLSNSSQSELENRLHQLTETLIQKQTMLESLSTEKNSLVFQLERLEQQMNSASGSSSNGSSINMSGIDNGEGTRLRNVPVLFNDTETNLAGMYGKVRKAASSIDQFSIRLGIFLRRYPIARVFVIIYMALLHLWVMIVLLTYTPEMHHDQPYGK

GM130 (GOLGA2) = target: T4, GM130 (GOLGA2) (UniProt Q08379)
T4 sequence: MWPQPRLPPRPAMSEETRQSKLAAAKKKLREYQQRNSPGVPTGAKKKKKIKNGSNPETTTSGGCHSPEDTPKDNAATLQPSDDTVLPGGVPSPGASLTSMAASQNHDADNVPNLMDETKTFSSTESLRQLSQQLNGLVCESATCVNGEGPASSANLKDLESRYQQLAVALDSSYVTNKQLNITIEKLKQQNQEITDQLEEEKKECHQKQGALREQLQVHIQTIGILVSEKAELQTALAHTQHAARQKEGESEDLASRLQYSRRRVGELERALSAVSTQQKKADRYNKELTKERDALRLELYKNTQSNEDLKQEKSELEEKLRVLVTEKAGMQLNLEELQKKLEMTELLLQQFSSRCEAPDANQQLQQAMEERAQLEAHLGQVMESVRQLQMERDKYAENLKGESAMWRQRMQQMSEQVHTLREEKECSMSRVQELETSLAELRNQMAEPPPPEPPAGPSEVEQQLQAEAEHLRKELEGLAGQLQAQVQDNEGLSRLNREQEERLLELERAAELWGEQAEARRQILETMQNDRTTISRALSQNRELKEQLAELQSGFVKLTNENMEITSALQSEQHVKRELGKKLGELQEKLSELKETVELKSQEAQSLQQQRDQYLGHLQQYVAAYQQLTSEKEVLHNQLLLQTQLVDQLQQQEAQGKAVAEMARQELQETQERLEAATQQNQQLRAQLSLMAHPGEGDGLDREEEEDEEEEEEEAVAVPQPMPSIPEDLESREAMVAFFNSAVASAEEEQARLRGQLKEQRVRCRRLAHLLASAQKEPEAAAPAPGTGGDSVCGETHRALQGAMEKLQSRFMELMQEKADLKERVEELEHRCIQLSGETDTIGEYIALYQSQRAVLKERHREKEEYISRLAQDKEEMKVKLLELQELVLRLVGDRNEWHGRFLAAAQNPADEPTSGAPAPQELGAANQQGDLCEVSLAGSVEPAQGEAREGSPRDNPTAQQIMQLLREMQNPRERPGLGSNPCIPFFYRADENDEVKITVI

GOLGA1 = target: T5, GOLGA1 (UniProt Q92805)
T5 sequence: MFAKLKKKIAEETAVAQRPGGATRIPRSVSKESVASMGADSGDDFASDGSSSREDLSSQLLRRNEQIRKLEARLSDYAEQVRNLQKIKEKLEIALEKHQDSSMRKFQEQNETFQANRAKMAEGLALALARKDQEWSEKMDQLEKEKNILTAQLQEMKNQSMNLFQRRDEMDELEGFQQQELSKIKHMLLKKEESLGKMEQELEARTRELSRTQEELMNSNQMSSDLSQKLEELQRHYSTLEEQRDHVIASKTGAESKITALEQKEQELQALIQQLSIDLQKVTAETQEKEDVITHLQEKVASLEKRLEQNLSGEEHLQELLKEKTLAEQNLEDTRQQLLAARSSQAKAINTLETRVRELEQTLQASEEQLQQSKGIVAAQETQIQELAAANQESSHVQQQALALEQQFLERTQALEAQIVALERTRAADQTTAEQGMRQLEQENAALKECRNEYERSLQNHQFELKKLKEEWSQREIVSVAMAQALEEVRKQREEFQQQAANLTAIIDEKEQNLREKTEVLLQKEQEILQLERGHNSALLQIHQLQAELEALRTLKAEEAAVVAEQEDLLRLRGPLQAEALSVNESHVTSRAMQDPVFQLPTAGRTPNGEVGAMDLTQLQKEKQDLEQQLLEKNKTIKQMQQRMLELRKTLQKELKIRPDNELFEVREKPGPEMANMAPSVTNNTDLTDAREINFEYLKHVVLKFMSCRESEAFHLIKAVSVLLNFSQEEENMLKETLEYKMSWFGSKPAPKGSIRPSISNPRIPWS

Molecule | binding [1] | binding [2] | binding [3] | binding (GOLGA5) | binding (GM130 (GOLGA2)) | binding (GOLGA1)
Myc-tagged EBV glycoprotein gB (from UniProt P03188 22-857) | binds | no binding |  |  |  | 
Flag-tagged BSRF1 (protein, UniProt P0CK49 1-218) MAFYLPDWSCCGLWLFGRPRNRYSQLPEEPETFECPDRWRAEIDLGLPPGVQVGDLLRNEQTMGSLRQVYLLAVQANSITDHLKRFDAVRVPESCRGVVEAQVAKLEAVRSVIWNTMISLAVSGIEMDENGLKALLDKQAGDSLALMEMEKVATALKMDETGAWAQEISAVVSSVTAPSASAPFINSAFEPEVPTPVLAPPPVVRQPEHSGPTELALT |  |  | binds | binds | no binding | no binding
